Source: the supplement of paper PMC4604168 (melanoma cell lines)
Some of the results follow. Many values rest on one well or one pass, so single values are uncertain.

How the values were obtained:
Experiment in all cases: cell count relative to DMSO control; melanoma cells; higher = more viable cells
Conditions in all cases: library dose: low library concentration; 72 h
WM115 = test system: WM115
WM1716 = test system: WM1716
WM1745 = test system: WM1745
WM3526 = test system: WM3526
WM3619 = test system: WM3619
WM451Lu = test system: WM451Lu
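Also: cell number obtained by counting DAPI-stained nuclei in high-throughput microscope images with image analysis software, screen run in 1,536-well plates.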

Compound	cell count (WM115) [%]	cell count (WM1716) [%]	cell count (WM1745) [%]	cell count (WM3526) [%]	cell count (WM3619) [%]	cell count (WM451Lu) [%]
C#Cc1cccc(Nc2ncnc3cc(OCCOC)c(OCCOC)cc23)c1 [erlotinib] + O=C(O)C(=O)Nc1sc2c(c1C(=O)O)CCNC2 [TCS401] (first compound 0.8 µM, partner dose 1.66667 µM)	84.9	94.3	74.2	86.3	102	118
C#Cc1cccc(Nc2ncnc3cc(OCCOC)c(OCCOC)cc23)c1 [erlotinib] + O=S(=O)(c1ccccc1)N(CC(F)(F)F)c1ccc(C(O)(C(F)(F)F)C(F)(F)F)cc1 [T0901317] (first compound 0.8 µM, partner dose 1.4 µM)	85.5	81	63.1	88.7	125	92.8
C#Cc1cccc(Nc2ncnc3cc(OCCOC)c(OCCOC)cc23)c1 [erlotinib] + COc1ccc(-c2ccc3c(N4CCOCC4)nc(N4C[C@@H](C)O[C@@H](C)C4)nc3n2)cc1CO [KU0063794] (first compound 0.8 µM, partner dose 0.02 µM)	77.2	78.6	70.8	83.9	79.7	121
Clc1ccc(Nc2nnc(Cc3ccncc3)c3ccccc23)cc1 [vatalanib] + Oc1cc(-c2nc(-c3ccccc3)[nH]c2-c2ccncc2)ccc1Cl [L779450] (first compound 2 µM, partner dose 0.2 µM)	63.2	101	78.8	64.5	111	102
C#Cc1cccc(Nc2ncnc3cc(OCCOC)c(OCCOC)cc23)c1 [erlotinib] + OCCn1cc(-c2cnc3nnn(Cc4ccc5ncccc5c4)c3n2)cn1 [PF04217903] (first compound 0.8 µM, partner dose 1 µM)	91.8	72.2	77.5	100	108	106
Cn1c(Nc2ccc(C(F)(F)F)cc2)nc2cc(Oc3ccnc(-c4ncc(C(F)(F)F)[nH]4)c3)ccc21 + NCC(=O)Nc1ccc(-n2nc(C(F)(F)F)cc2-c2ccc3c(ccc4ccccc43)c2)cc1 [OSU03012] (first compound 0.08 µM, partner dose 1 µM)	51.3	75.1	71.8	50.7	74.7	59.5
O=C(CCCCCCC(=O)Nc1ccccc1)NO [vorinostat] + Cc1cc(N2CCOCC2)cc2[nH]c(-c3c(NC[C@@H](O)c4cccc(Cl)c4)cc[nH]c3=O)nc12 [BMS536924] (first compound 0.08 µM, partner dose 0.2 µM)	108	103	73.7	94	76.9	95.1
OCc1c[nH]c2ccccc12 [Indole-3-carbinol] + O=C(Nc1cccc(Cl)c1)Nc1ncc(CCNc2ncnc3ccsc23)s1 [SNS314] (first compound 0.8 µM, partner dose 0.0008 µM)	97.5	96.8	127	115	141	99.7
Cn1c(Nc2ccc(C(F)(F)F)cc2)nc2cc(Oc3ccnc(-c4ncc(C(F)(F)F)[nH]4)c3)ccc21 + Cn1cc(/C=C2\C(=O)Nc3cccnc32)c2ccccc21 [GW441756] (first compound 0.08 µM, partner dose 0.4 µM)	52.3	75.4	75.5	53	59.7	91
COCC[n+]1c2c(n(Cc3cnccn3)c1C)C(=O)c1ccccc1C2=O + Oc1nc(-c2ccc(C(F)(F)F)cc2)nc2c1CSCC2 [XAV939] (first compound 0.0004 µM, partner dose 2 µM)	78.8	71.3	85	102	90.7	85.4
Cn1c(Nc2ccc(C(F)(F)F)cc2)nc2cc(Oc3ccnc(-c4ncc(C(F)(F)F)[nH]4)c3)ccc21 + C[C@@H]1CCN(C(=O)CC#N)C[C@@H]1N(C)c1ncnc2[nH]ccc12 [CP690550] (first compound 0.08 µM, partner dose 1 µM)	56.7	85.3	68.4	58.9	65.8	103
Cn1c(Nc2ccc(C(F)(F)F)cc2)nc2cc(Oc3ccnc(-c4ncc(C(F)(F)F)[nH]4)c3)ccc21 + COC(=O)c1sccc1S(=O)(=O)Nc1ccc(Nc2ccccc2)cc1OC [GSK0660] (first compound 0.08 µM, partner dose 1 µM)	49.8	71.1	63.3	44.7	76.4	83.7
Nc1cccc2c1CN(C1CCC(=O)NC1=O)C2=O (stereo not drawn) [lenalidomide] + COc1cc2ncnc(Nc3ccc(Oc4ccccc4)cc3)c2cc1OC [SrcI1] (first compound 1 µM, partner dose 2 µM)	102	111	91.5	84.7	121	119
O=C(CCCCCCC(=O)Nc1ccccc1)NO [vorinostat] + Cc1cc([N+](=O)[O-])ccc1NS(=O)(=O)c1cc(Cl)ccc1Cl [FH535] (first compound 0.08 µM, partner dose 1 µM)	91.3	114	98.5	92.7	91	101
O=C(CCCCCCC(=O)Nc1ccccc1)NO [vorinostat] + OCCn1cc(-c2cnc3nnn(Cc4ccc5ncccc5c4)c3n2)cn1 [PF04217903] (first compound 0.08 µM, partner dose 1 µM)	100	112	116	86.4	99.4	71
Nc1cccc2c1CN(C1CCC(=O)NC1=O)C2=O (stereo not drawn) [lenalidomide] + O=C1NC(=O)/C(=C/c2ccc(-c3ccc(F)cc3O)o2)S1 [AS252424] (first compound 1 µM, partner dose 1 µM)	107	100	95.5	98.2	119	77.8
Cn1c(Nc2ccc(C(F)(F)F)cc2)nc2cc(Oc3ccnc(-c4ncc(C(F)(F)F)[nH]4)c3)ccc21 + O=C(CCCCCCC(=O)Nc1ccccc1)NO [vorinostat] (first compound 0.08 µM, partner dose 0.08 µM)	57.9	83.6	73.9	52.3	53.6	78.9
OCc1c[nH]c2ccccc12 [Indole-3-carbinol] + Oc1nc(-c2ccc(C(F)(F)F)cc2)nc2c1CSCC2 [XAV939] (first compound 0.8 µM, partner dose 2 µM)	86.6	60.5	77.6	108	95.2	101
COCC[n+]1c2c(n(Cc3cnccn3)c1C)C(=O)c1ccccc1C2=O + O=C(O)C(=O)Nc1sc2c(c1C(=O)O)CCNC2 [TCS401] (first compound 0.0004 µM, partner dose 1.66667 µM)	87.3	91.9	89.6	99.8	111	84
O=C(CCCCCCC(=O)Nc1ccccc1)NO [vorinostat] + Oc1cc(-c2nc(-c3ccccc3)[nH]c2-c2ccncc2)ccc1Cl [L779450] (first compound 0.08 µM, partner dose 0.2 µM)	103	121	113	65.5	80.6	111
Cn1c(Nc2ccc(C(F)(F)F)cc2)nc2cc(Oc3ccnc(-c4ncc(C(F)(F)F)[nH]4)c3)ccc21 + COc1cc2c(Oc3ccc4[nH]c(C)cc4c3F)ncnc2cc1OCCCN1CCCC1 [cediranib] (first compound 0.08 µM, partner dose 0.4 µM)	62.3	81.9	65.5	54.8	60.5	85.2
COCC[n+]1c2c(n(Cc3cnccn3)c1C)C(=O)c1ccccc1C2=O + CCc1ccc(CCOc2ccc(CC3SC(=O)NC3=O)cc2)nc1 [pioglitazone] (first compound 0.0004 µM, partner dose 2 µM)	87.9	88.3	109	105	123	62
Cn1c(Nc2ccc(C(F)(F)F)cc2)nc2cc(Oc3ccnc(-c4ncc(C(F)(F)F)[nH]4)c3)ccc21 + O=C(O)C(=O)Nc1sc2c(c1C(=O)O)CCNC2 [TCS401] (first compound 0.08 µM, partner dose 1.66667 µM)	57.1	69	74.6	59.7	80.7	117
Clc1ccc(Nc2nnc(Cc3ccncc3)c3ccccc23)cc1 [vatalanib] + NC(=O)Nc1cc(-c2cccc(F)c2)sc1C(=O)N[C@H]1CCCNC1 [AZD7762] (first compound 2 µM, partner dose 0.02 µM)	89.4	78.4	89.9	84.2	73	95.3
OCc1c[nH]c2ccccc12 [Indole-3-carbinol] + COc1ccc(-c2ccc3c(N4CCOCC4)nc(N4C[C@@H](C)O[C@@H](C)C4)nc3n2)cc1CO [KU0063794] (first compound 0.8 µM, partner dose 0.02 µM)	92	97.3	96	111	132	112
C#Cc1cccc(Nc2ncnc3cc(OCCOC)c(OCCOC)cc23)c1 [erlotinib] + CO[C@@H]1[C@H](N(C)C(=O)c2ccccc2)C[C@H]2O[C@]1(C)n1c3ccccc3c3c4c(c5c6ccccc6n2c5c31)C(=O)NC4 [Midostaurin] (first compound 0.8 µM, partner dose 0.08 µM)	77	67.4	65	71.4	74.4	109
Clc1ccc(Nc2nnc(Cc3ccncc3)c3ccccc23)cc1 [vatalanib] + Oc1nc(-c2ccc(C(F)(F)F)cc2)nc2c1CSCC2 [XAV939] (first compound 2 µM, partner dose 2 µM)	80.7	61.4	76.9	116	111	103
O=C(CCCCCCC(=O)Nc1ccccc1)NO [vorinostat] + O=C(Nc1ccccc1)c1cc([N+](=O)[O-])ccc1Cl [GW9662] (first compound 0.08 µM, partner dose 2 µM)	96.6	97.8	102	101	90.3	96.3
